# The supplement of paper PMC8728848
# The other results are listed elsewhere or left out.
# B1: GALT1 115 D492A (Arabidopsis thaliana), Q8L7F9 (protein)
# chain: DPMRGSHHHHHHGMASMTGGQQMGRDLYDDDDKSRLQKPYITAAASVVVTPNTTLPMEWLRITLPDFMKEARNTQEAISGDDIAVVSGLFVEQNVSKEEREPLLTWNRLESLVDNAQSLVNGVDAIKEAGIVWESLVSAVEAKKLVDVNENQTRKGKEELCPQFLSKMNATEADGSSLKLQIPCGLTQGSSITVIGIPDGLVGSFRIDLTGQPLPGEPDPPIIVHYNVRLLGDKSTEDPVIVQNSWTASQDWGAEERCPKFDPDMNKKVDDLDECNKMVGGEINRTSSTSLQSNTSRGVPVAREASKHEKYFPFKQGFLSVATLRVGTEGMQMTVDGKHITSFAFRDTLEPWLVSEIRITGDFRLISILASGLPTSEESEHVVDLEALKSPTLSPLRPLDLVIGVFSTANNFKRRMAVRRTWMQYDDVRSGRVAVRFFVGLHKSPLVNLELWNEARTYGDVQLMPFVDYYSLISWKTLAICIFGTEVDSAKFIMKTDDAAFVRVDEVLLSLSMTNNTRGLIYGLINSDSQPIRNPDSKWYISYEEWPEEKYPPWAHGPGYIVSRDIAESVGKLFKEGNLKMFKLEDVAMGIWIAELTKHGLEPHYENDGRIISDGCKDGYVVAHYQSPAEMTCLWRKYQETKRSLCCREW
# Key:
# Experiment in all cases: glycan array binding signal (z-score within array); higher = stronger binding
# Details in all cases: glycan notation: IUPAC condensed, linker removed
# [1] = biological target: Fuc(a1-2)[Gal(a1-3)]Gal(b1-4)GlcNAc(b1-2)Man(a1-3)[Fuc(a1-2)[Gal(a1-3)]Gal(b1-4)GlcNAc(b1-2)Man(a1-6)]Man(b1-4)GlcNAc(b1-4)GlcNAc
# In short: (§1)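 Glycan array data were curated from 3228 arrays in the Consortium for Functional Glycomics database and kept only where the protein sequence was available. Glycan names were converted to IUPAC-condensed notation, and columns mapping to the same glycan were averaged. The binding signal is a within-array Z-score, averaged across arrays of the same protein sequence at different concentrations or buffers and across linkers. Negative Z-scores can be read as non-binding.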
# [2] = biological target: Fuc(a1-2)[Gal(a1-3)]Gal(b1-4)[Fuc(a1-3)]GlcNAc
# In short: as §1
# [3] = biological target: Fuc(a1-2)[Gal(a1-4)]Gal(b1-4)GlcNAc
# In short: as §1
# [4] = biological target: Fuc(a1-2)[GalNAc(a1-3)]Gal
# In short: as §1
# [5] = biological target: Fuc(a1-2)[GalNAc(a1-3)]Gal(b1-3)GlcNAc
# In short: as §1
# [6] = biological target: Fuc(a1-2)[GalNAc(a1-3)]Gal(b1-3)GlcNAc(b1-2)Man(a1-3)[Fuc(a1-2)[GalNAc(a1-3)]Gal(b1-3)GlcNAc(b1-2)Man(a1-6)]Man(b1-4)GlcNAc(b1-4)GlcNAc
# In short: as §1
# [7] = biological target: Fuc(a1-2)[GalNAc(a1-3)]Gal(b1-4)Glc
# In short: as §1
# [8] = biological target: Fuc(a1-2)[GalNAc(a1-3)]Gal(b1-4)GlcNAc
# In short: as §1
# [9] = biological target: Fuc(a1-2)[GalNAc(a1-3)]Gal(b1-4)GlcNAc(b1-2)Man(a1-3)[GalNAc(a1-3)[Fuc(a1-2)]Gal(b1-4)GlcNAc(b1-2)Man(a1-6)]Man(b1-4)GlcNAc(b1-4)GlcNAc
# In short: as §1
# [10] = biological target: Fuc(a1-2)[GalNAc(a1-3)]Gal(b1-4)GlcNAc(b1-3)Gal(b1-4)GlcNAc
# In short: as §1
# [11] = biological target: Fuc(a1-2)[GalNAc(a1-3)]Gal(b1-4)GlcNAc(b1-3)Gal(b1-4)GlcNAc(b1-3)Gal(b1-4)GlcNAc
# In short: as §1
# [12] = biological target: Fuc(a1-2)[GalNAc(a1-3)]Gal(b1-4)[Fuc(a1-3)]GlcNAc
# In short: as §1
# [13] = biological target: Fuc(a1-2)[GalNAc(a1-4)]Gal(b1-4)GlcNAc
# In short: as §1
# [14] = biological target: Fuc(a1-2)[GalNAc(b1-3)]Gal
# In short: as §1
# Fuc(a1-3)GlcNAc = biological target: Fuc(a1-3)GlcNAc
# In short: as §1
# [15] = biological target: Fuc(a1-3)[Gal(b1-4)]Glc6S
# In short: as §1
# [16] = biological target: Fuc(a1-3)[Gal(b1-4)]GlcNAc
# In short: as §1
# [17] = biological target: Fuc(a1-3)[Gal(b1-4)]GlcNAc(b1-2)Man(a1-3)[Fuc(a1-3)[Gal(b1-4)]GlcNAc(b1-2)Man(a1-6)]Man(b1-4)GlcNAc(b1-4)GlcNAc
# In short: as §1
# [18] = biological target: Fuc(a1-3)[Gal(b1-4)]GlcNAc(b1-2)Man(a1-6)[Gal(b1-4)GlcNAc(b1-2)Man(a1-3)]Man(b1-4)GlcNAc(b1-4)GlcNAc
# In short: as §1
# [19] = biological target: Fuc(a1-3)[Gal(b1-4)]GlcNAc(b1-3)Gal(b1-3)[Fuc(a1-4)]GlcNAc
# In short: as §1
# [20] = biological target: Fuc(a1-3)[Gal(b1-4)]GlcNAc(b1-4)Gal(b1-4)[Fuc(a1-3)]GlcNAc
# In short: as §1
# [21] = biological target: Fuc(a1-3)[Gal(b1-4)]GlcNAc(b1-4)Gal(b1-4)[Fuc(a1-3)]GlcNAc(b1-4)Gal(b1-4)[Fuc(a1-3)]GlcNAc
# In short: as §1
# [22] = biological target: Fuc(a1-3)[Gal(b1-4)]GlcNAc6S
# In short: as §1
# [23] = biological target: Fuc(a1-3)[Gal3S(b1-4)]Glc6S
# In short: as §1
# [24] = biological target: Fuc(a1-3)[Gal3S(b1-4)]GlcNAc
# In short: as §1
# [25] = biological target: Fuc(a1-3)[Gal3S(b1-4)]GlcNAc6S
# In short: as §1
# [26] = biological target: Fuc(a1-3)[GalNAc(b1-4)]GlcNAc
# In short: as §1
# [27] = biological target: Fuc(a1-3)[Neu5Ac(a2-3)]Gal(b1-4)GlcNAc(b1-3)GalNAc
# In short: as §1
# Fuc(a1-4)GlcNAc = biological target: Fuc(a1-4)GlcNAc
# In short: as §1
# Fuc(b1-3)GlcNAc = biological target: Fuc(b1-3)GlcNAc
# In short: as §1
binder,measurement,setting,value
B1,glycan array binding signal (z-score),[1],-0.005
same,glycan array binding signal (z-score),[2],-0.252
same,glycan array binding signal (z-score),[3],0.104
same,glycan array binding signal (z-score),[4],-0.352
same,glycan array binding signal (z-score),[5],0.58
same,glycan array binding signal (z-score),[6],-0.087
same,glycan array binding signal (z-score),[7],-0.201
same,glycan array binding signal (z-score),[8],-0.228
same,glycan array binding signal (z-score),[9],-0.265
same,glycan array binding signal (z-score),[10],-0.282
same,glycan array binding signal (z-score),[11],0.475
same,glycan array binding signal (z-score),[12],0.043
same,glycan array binding signal (z-score),[13],-0.139
same,glycan array binding signal (z-score),[14],-0.27
same,glycan array binding signal (z-score),Fuc(a1-3)GlcNAc,-0.403
same,glycan array binding signal (z-score),[15],-0.395
same,glycan array binding signal (z-score),[16],0.29
same,glycan array binding signal (z-score),[17],-0.034
same,glycan array binding signal (z-score),[18],0.456
same,glycan array binding signal (z-score),[19],-0.298
same,glycan array binding signal (z-score),[20],-0.107
same,glycan array binding signal (z-score),[21],-0.408
same,glycan array binding signal (z-score),[22],-0.228
same,glycan array binding signal (z-score),[23],-0.311
same,glycan array binding signal (z-score),[24],0.542
same,glycan array binding signal (z-score),[25],0.448
same,glycan array binding signal (z-score),[26],-0.21
same,glycan array binding signal (z-score),[27],-0.012
same,glycan array binding signal (z-score),Fuc(a1-4)GlcNAc,-0.25
same,glycan array binding signal (z-score),Fuc(b1-3)GlcNAc,-0.007
